Measurements as given in the RNAGym collection of RNA variant scans (doi:10.1093/nar/gkz1192).
Read counts are not given, so values of variants with three or more changes are uncertain.

B1: CPEB3 Ribozyme (parent)
chain: UAACAGGGGGCCACAGCAGAAGCGUUCACGUCGCAGCCCCUGUCAGAUUCUGGUGAAUCUGCGAAUUCUGCUGUAUAUCUC

Variants of: B1
Assay: self-cleavage, relative activity (ratio to wild type); higher = more cleavage; in vitro, sequencing
In short: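 CPEB3 self-cleaving ribozyme mutant libraries were made by rounds of error-prone PCR, barcoded, and transcribed in vitro with T7 RNA polymerase for 5 hours at 37°C. Cleavage occurred during transcription and a 15 min DNase I step before EDTA stop. RNAs were reverse transcribed with template switching and Illumina-sequenced, with DNA sequencing mapping barcodes to variants. Relative activity is the variant's cleaved/total read fraction divided by wild type's (minimum 5 reads), averaged across three batches.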

| Variant | self-cleavage |
| --- | --- |
| C4G C40U A64G U80A | 0.67 |
| C4U A28U A35G G42A U49C U67C U80C | 0.08 |
| C4A G8A A45U A64G | 0.25 |
| C4U G6C G8A U26C A47G | 0.09 |
| C4G A35G U54C C68U | 1.19 |
| C4U A20G A56G U80A | 1.09 |
| C4U A15G A35G U78A | 1.1 |
| C4A U41C U48C U60A U72A | 0.16 |
| C4U U26C U69C | 0.25 |
| A3U U49C U72A | 0.23 |
| C4G A13G U25C A45G | 0.1 |
| C4U A21G A28U A35G U43A U72C U80C | 1.18 |
| C4G U69A U80C | 0.89 |
| A3U U26C U80A | 0.69 |
| A3U U67A U69C U72C | 0.4 |
| C4G A13U U31C U78C | 1.04 |
| C4G G9U A18U U41A A75U U76A | 0.07 |
| C4U A15G A18U A28G U54C | 0.15 |
| C4G A13G U49C U80G | 0.35 |
| A3U U54A G63C U78A | 1.2 |
| C4G A20U A21G G52U | 0.22 |
| C4U A21C U25G U54C U58A | 0.18 |
| C4U G42A A45G | 0.11 |
| C4U A5G A20G C37A A56G | 0.08 |

| Variant | self-cleavage |
| --- | --- |
| C4A A5G U43C U54G A57G U80C | 0.1 |
| C4G A5G A21G C29A U78C | 0.23 |
| A3U U25C U48A U49A U78C | 0.35 |
| A3U U54A A56G | 0.71 |
| C4U U41C U43A U54A U66C | 0.47 |
| C4G U31C U41C U51C G73A | 1.19 |
| C4U A21U U25C A45U U48C G73U | 0.08 |
| A3U U60C A64U | 0.16 |
| A3U U60C A64G | 0.29 |
| C4A U31A U66C | 0.36 |
| C4U A13U A45G U54C | 1.23 |
| C4U A35U U43C A56G | 0.16 |
| C4U G6C U49C A56G U72G A77G | 0.19 |
| C4U U26A A75G | 0.81 |
| C4A U31C U43C | 0.38 |
| C4U A18U G36A U80C | 0.62 |
| C4A U26A A47C A75G | 0.13 |
| C4U G9U A21C A65U U72A | 0.37 |
| A3U U31C C62U U72A | 0.12 |
| C4G C17G A21G U41C U60C | 0.08 |
| C4G A21G A28G A56U U72G C81A | 0.3 |
| C4A U26C U43C G55A U69A | 0.24 |
| C4U A20G A45U A56U | 0.26 |
| C4U G9U A15G C29U | 0.08 |

| Variant | self-cleavage |
| --- | --- |
| C4A U49C C62A G63C | 0.15 |
| C4U A13G A45U U60C U69C | 0.25 |
| C4U C38U U66C U74C | 0.27 |
| C4U A28C G30C U41A | 0.34 |
| C4U A5G U69C | 0.46 |
| C4G C17G A28U C59A U67C | 0.06 |
| C4U A5G A18G A45G U58G U60A U66A | 0.08 |
| C4U A57G U60C A75G | 0.46 |
| C4U A21G U60C | 0.24 |
| C4U C62A U72C | 0.16 |
| A3U U60C U69C U74C | 0.29 |
| A3U U25C A35G U69A | 0.07 |
| C4G G10A C12U A35U | 0.08 |
| C4G A18G G30A U72A | 0.06 |
| A3U U51A U67C U72C A75G | 0.4 |
| C4U A15G G16A | 0.41 |
| C4U C23G U54C U67A U74C | 0.24 |
| C4U A18G A20G U25C A56U U69C U74A | 0.15 |
| A3U U31G A45U A64G | 0.23 |
| C4U C11G A15G U49C | 0.12 |
| A3U U31A A35U U69A | 0.23 |
| A3U U25C U60C | 0.07 |
| A3U U41C U69A | 0.57 |
| C4U A13G A20U A21G | 0.36 |

| Variant | self-cleavage |
| --- | --- |
| A3U U25C A45G U74A | 0.5 |
| C4U U26A A28G A35G U43C | 0.27 |
| C4U A57G G63U U72A | 1.23 |
| C4U U26C U31A A65G U67C U69C | 0.11 |
| C4U C11U G19U G30A U41C A65U C79A | 0.04 |
| A3U U60A A64G | 0.67 |
| C4U A13G U31A G36A A47U | 0.24 |
| C4U U31C U48A U74G | 0.59 |
| A3U U25C U58C | 0.51 |
| A3U U25C U41C U48C U60C A75U U76C | 0.07 |
| C4U A57G U74A | 1.17 |
| C4U A21G A47G A57G U72C | 0.48 |
| C4U A20U U51A U74A | 0.94 |
| C4U G9A A15G | 0.47 |
| C4U A21U C38G U49C | 0.19 |
| A3U U31C A45G A56G U74C | 0.63 |
| C4U A21C A57G | 0.41 |
| C4G A21G U31C A75G U78A | 0.44 |
| C4U U26A U80C | 1.13 |
| C4G A21U A35G C40A U54C A65U G70A | 0.07 |
| A3U U60C C62U U72A A77G | 0.29 |
| A3U G63A A65G U76C | 0.68 |
| C4G A13G A18G U58C U80C | 0.08 |
| C4G G9C U25C U43C U67A | 0.06 |

| Variant | self-cleavage |
| --- | --- |
| A3U U58A A65U U74C | 0.15 |
| C4U A15C U43C U72C U76C | 0.98 |
| C4G A20G U49A | 0.57 |
| A3U U41C A45G U58C U80C | 0.45 |
| C4U C11G U26C A45U A77G | 0.05 |
| C4G G19A U60A C62G U67A | 0.12 |
| C4A C12G U41A A45G | 0.15 |
| C4U G63U A77G | 1.2 |
| A3U U25C U26C U41A U69C | 0.12 |
| C4G A5G U48C U60C U67C | 0.19 |
| C4U A45U U51A U60A | 1.18 |
| C4U U41C A47G A57G U67C U69A | 0.34 |
| C4A A35G C38U G53A U74A | 1.31 |
| C4U A15U U67C | 0.41 |
| C4U G19U A21G G52U U60A | 0.16 |
| A3U U41C U54G | 0.83 |
| C4U A13U A35G C39A U69A U72C U80A | 0.12 |
| C4A A15U C29U C40G U41C U72C A75U | 0.16 |
| C4U U26A A28G G36A U43A A47G G70A | 0.1 |
| C4U A20U U41C | 0.51 |
| A3U U25C A28G | 0.53 |
| C4U A57G U72C | 1.07 |
| C4U U41C U58A U76C U80A | 0.8 |
| C4U C11G A18G U41A U48A | 0.08 |

| Variant | self-cleavage |
| --- | --- |
| C4G A18G U26C U80C | 0.79 |
| C4G A5G U58C | 0.58 |
| C4U A13G U25C U58A | 0.21 |
| A3U U26G C40U U54C U74C | 0.13 |
| C4U A35G A56G U80A | 1.32 |
| A3U U41C U49C A64U | 0.12 |
| A3U U26C A64G U69C | 0.17 |
| C4U G6A U74C | 0.41 |
| C4U G10A A18G U41G U67C U69A A75G | 0.04 |
| C4A C12U A13U U25C G42A U72C | 0.07 |
| C4G A21G A28G | 0.41 |
| A3U U31C A56G U67C C71A | 0.15 |
| C4G C29U A35U C38U U66C U67A | 0.24 |
| C4U A13U A15G A28U U51A U69A U78A | 0.56 |
| A3U U25C U41A A45G U60C U67A | 0.1 |
| A3U U25C A35G C40U U80C | 0.21 |
| C4U C11U U67C | 0.1 |
| C4A A18G U26C U43C G55A U58A | 0.16 |
| C4G A5U U26C U60C U80C | 0.47 |
| A3U U26C A56G | 0.28 |
| C4U U25A U41A U43C | 0.54 |
| A3U G55A A57G U67A G73U | 0.19 |
| A3U U25A A35U U60G A65G U69A | 0.06 |
| C4U A18U A56G | 0.79 |

| Variant | self-cleavage |
| --- | --- |
| C4U U26A C44U U58C U72A U76C | 0.19 |
| C4U C11G U26C A47G U51C U76C | 0.23 |
| C4U A56G U72C | 0.93 |
| C4U A15U U78C | 1.23 |
| C4A G8C G10A C34U C59A U78C | 0.05 |
| C4G G16A A18G U43C A57G | 0.26 |
| C4U U26C U67A | 0.12 |
| A3U U51A A64G | 0.96 |
| C4A U41C U54C | 1.11 |
| C4U A13U A20U U43C C44G A57G | 0.12 |
| C4U A13G U41C A65G U66C | 0.28 |
| C4U U26A G36A | 0.36 |
| C4A C12U U76C U80A | 1.27 |
| C4U C11G C27U A45G | 0.3 |
| A3U U26C U72C | 0.21 |
| A3U U26C C32U G61A U69A | 0.07 |
| C4U U26C A35G U41C U72C | 1.2 |
| A3U U54A U76C | 1.21 |
| C4G G6A U51C | 0.54 |
| A3U U25C U78C U80C | 0.07 |
| A3U U54A U78A | 1.12 |
| C4U A28G U51C G52U C62U | 0.25 |
| C4G C11G U31C U69A U76A | 0.1 |
